Measured values taken from the supplement of paper PMC11880418.
Where a name gives a salt, the structure may show the parent alone. Some of the results follow. The data scatter; read single values as rough.

Test system: SUM159
Assay: ALDHbr (CSC) cell proportion score relative to DMSO vehicle (ratio to DMSO); breast (SUM159) / gastric (MKN45) / pancreatic (PANC1) / colon cancer lines; ALDHbr cells have high ALDH activity and are rich in cancer stem cells (CSC); higher = more CSC (ALDHbr) cells remaining
Details: 10 µM; 72 h
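Note: High-content imaging of ALDEFLUOR-stained cells with Hoechst-labelled nuclei in 384-well plates, triplicate wells, scored as Z-score against 0.1% DMSO vehicle, negative meaning fewer ALDHbr cells.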

Compound | ALDHbr
N=C(N)NCCN1CCCCCCC1 [Guanethidine sulfate] | 1.19
CC(=O)Nc1nnc(S(N)(=O)=O)s1 [Acetazolamide] | 1.09
CCCc1nc2c(C)cc(-c3nc4ccccc4n3C)cc2n1Cc1ccc(-c2ccccc2C(=O)O)cc1 [Telmisartan] | 0.806
NS(=O)(=O)c1cc2c(cc1Cl)N=C(CSCc1ccccc1)NS2(=O)=O [Benzthiazide] | 1.07
COc1cc(C(=O)N2CCOCC2)cc(OC)c1OC [Trimetozine] | 0.963
O=C1CN2Cc3c(ccc(Cl)c3Cl)N=C2N1 [Anagrelide] | 1
CN1CCCN(C(c2ccccc2)c2ccc(Cl)cc2)CC1 (stereo not drawn) [Homochlorcyclizine dihydrochloride] | 0.583
CC(=O)OCC1=C(C(=O)O)N2C(=O)[C@@H](NC(=O)Cc3cccs3)[C@H]2SC1 [Cephalothin sodium salt] | 0.735
CC[N+](C)(CC)CCC[n+]1c(-c2ccccc2)c2cc(N)ccc2c2ccc(N)cc21 [Propidium iodide] | 1.34
O=C(c1ccc(OCCN2CCCCC2)cc1)c1c(-c2ccc(O)cc2)sc2cc(O)ccc12 [Raloxifene hydrochloride] | 0.456
CO/N=C(\C(=O)N[C@@H]1C(=O)N2C(C(=O)O)=C(COC(C)=O)CS[C@H]12)c1csc(N)n1 [Cefotaxime sodium salt] | 0.966
COc1ccc(NS(=O)(=O)c2ccc(N)cc2)nn1 [Sulfamethoxypyridazine] | 1.11
CCn1cc(C(=O)O)c(=O)c2cc(F)c(N3CCNCC3)nc21 [Enoxacin] | 0.872
